“And” between values parts separate entries of the source, which are not always exact repeats. Equal values may be shown once. The campaign covered roughly 410,000 compounds. About 6,400 (1.6%) were called active. The shares of active, inactive and inconclusive entries below differ from those in the screen. Calls follow the shape of the dose curve; as a rule, active = well fitted inhibition curve with a large enough effect; inconclusive = small, poorly fitted or top-dose-only effect; inactive = no such curve, though single readings can be large or run the other way. Where the call is inconclusive, the potency comes from a doubtful curve fit.
The compounds below were run against Glucagon-like peptide 1 receptor (Homo sapiens) (UniProt P43220) (assay: qHTS of GLP-1 Receptor Inverse Agonists (Inhibition Mode)). Conditions: HEK293 GLP-1R CRE-luciferase, luminescence, 24 h, GLP-1R form is constitutively active; series mostly up to 38.3 µM.
Chain of UniProt P43220 (P43220 whole entry, looked up): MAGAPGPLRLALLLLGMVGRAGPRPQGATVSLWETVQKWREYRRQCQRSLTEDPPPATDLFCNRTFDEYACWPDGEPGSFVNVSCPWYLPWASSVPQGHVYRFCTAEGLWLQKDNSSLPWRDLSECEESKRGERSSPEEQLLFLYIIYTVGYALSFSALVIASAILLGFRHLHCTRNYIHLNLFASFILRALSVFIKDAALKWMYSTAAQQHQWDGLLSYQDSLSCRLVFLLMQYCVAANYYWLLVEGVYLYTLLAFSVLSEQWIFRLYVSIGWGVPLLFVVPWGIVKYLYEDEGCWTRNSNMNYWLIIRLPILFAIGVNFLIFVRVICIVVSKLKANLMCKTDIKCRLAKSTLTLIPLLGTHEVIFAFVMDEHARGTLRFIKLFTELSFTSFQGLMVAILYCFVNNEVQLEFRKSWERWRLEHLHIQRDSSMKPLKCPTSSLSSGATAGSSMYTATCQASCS
Outline: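 Assay principle: reduced luminescence from a cAMP-responsive reporter in HEK293 cells co-expressing a constitutively active GLP-1R. Conditions: 24 hr compound incubation, 37 deg C, 5% CO2.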
Also: nearly all actives have a fitted effect of over 55% in size.
Potency is read from the fitted curve at half-maximal effect; tags tell the direction and shape of the fitted curve.

Row | SMILES | Potency
1 | Cc1ccccc1NC(=O)c1cccc2c(=O)c3c([nH]c12)CCCC3 | inconclusive: 20 µM [inhibitor, single point]
2 | CN(Cc1ccccc1)C(=O)COC(=O)c1cc(-c2ccc(Cl)s2)nc2ccccc12 | inconclusive: 28.2 µM [inhibitor, single point]
3 | CCOC(=O)c1c(-c2ccc(OC)cc2)csc1/N=C/N(C)C | inactive
4 | Cn1nnnc1SCC(=O)NNC(=O)c1ccc(Cl)cc1 | inactive
5 | CCN(CC)c1ccc(/C=N/NC(=O)Nc2ccccc2)cc1 | inconclusive: 28.2 µM [inhibitor, single point]
6 | O=C(CCNC(=O)c1ccc(Cl)cc1)NC1CCCc2ccccc21 (stereo not drawn) | inconclusive: 11.2 µM [inhibitor, partial curve]
7 | O=C(CSCc1ccccc1Cl)Nc1ccc2c(c1)OCCO2 | inactive
8 | Cc1cc(OC(F)F)ccc1NC(=S)NCCc1ccccc1 | inconclusive: 10 µM [inhibitor, single point]
9 | Cc1csc(-c2cnn(-c3ccccc3)c2NC(=O)c2ccc(C(F)(F)F)cc2)n1 | inconclusive: 11.2 µM [inhibitor, partial curve, poor fit]
10 | Cc1ccc(C(=O)Nc2nc3n(n2)C(c2ccc(F)cc2)C=C(c2ccccc2)N3)cc1 (stereo not drawn) | inactive
11 | Cc1ccc(N2CCN(C(=O)CCc3nc4ccccc4[nH]3)CC2)c(C)c1 | inconclusive: 10 µM [inhibitor, partial curve, poor fit]
12 | O=C1CCCCC1C(Nc1ccc(Br)cc1)c1ccccc1 (stereo not drawn) | inconclusive: 10 µM [inhibitor, partial curve, poor fit]
13 | COc1cccc(N2CCN(Cc3nc(N)nc(N4CCCc5ccccc54)n3)CC2)c1 | inconclusive: 28.2 µM [inhibitor, single point]
14 | O=C(O)c1cccc(Nc2ncnc3ccc(Br)cc23)c1 | inactive
15 | O=C(NCc1ccccc1)c1cc(S(=O)(=O)N2CCCCC2)ccc1N1CCOCC1 | inconclusive: 10 µM [inhibitor, partial curve]
16 | COc1ccc(-c2cc3nc(-c4ccccc4)cc(N4CCN(C(=O)c5ccoc5)CC4)n3n2)cc1 | inconclusive: 10 µM [inhibitor, partial curve]
17 | CCOC(=O)c1cc2c(=O)n3cccc(C)c3nc2n(Cc2ccco2)c1=NC(=O)c1cccnc1 | inactive
18 | O=C(COc1ccc(Br)cc1F)NC1CCN(Cc2ccccc2)CC1 | inconclusive: 10 µM [inhibitor, partial curve]
19 | COc1cc(C(=O)NC2CC3CCCC(C2)N3Cc2ccccc2)cc(OC)c1OC (stereo not drawn) | inactive
20 | Cc1ccc2c(c1)N(S(=O)(=O)c1cc(-c3onc(C)c3C)ccc1C)CCO2 | inconclusive: 11.2 µM [inhibitor, single point] and inconclusive: 8.91 µM [inhibitor, partial curve, poor fit]
21 | COc1cccc(C(C)(O)c2nc(-c3ccc4ccccc4c3)cs2)c1 (stereo not drawn) | inconclusive: 10 µM [inhibitor, single point]

Row | SMILES | Potency
22 | COc1ccc(OC)c(CCNC(=O)c2ccc(CS(=O)Cc3ccc(Cl)cc3)o2)c1 (stereo not drawn) | inconclusive: 8.91 µM [inhibitor, single point]
23 | CC(C)(C)c1ccc(NC(=O)c2cc(C3CCCN(C(=O)CCc4ccccc4)C3)on2)cc1 (stereo not drawn) | inconclusive: 6.31 µM [inhibitor, partial curve]
24 | O=C(Cn1cc(C(=O)c2ccncc2)c(=O)c2cc(F)ccc21)Nc1ccc(Cl)cc1 | inactive
25 | CC(=O)Nc1ccc(S(=O)(=O)N(C)c2nc3ccccc3nc2Cl)cc1 | inconclusive: 11.2 µM [inhibitor, single point]
26 | CCOC(=O)C1=CCN(S(=O)(=O)c2ccc(Br)cc2)C1c1ccccc1 (stereo not drawn) | inconclusive: 22.4 µM [inhibitor, single point]
27 | CCCSc1ncc(Cl)c(C(=O)NCc2ccc(OC)cc2)n1 | inactive
28 | CN(C)CCNC(=O)c1ccc2c(c1)N(Cc1ccccc1)C(=O)c1ccccc1S2(=O)=O | inconclusive: 4.47 µM [inhibitor, partial curve, poor fit]
29 | O=C(NCCC1CCCCN1S(=O)(=O)c1ccccc1)C(=O)Nc1ccccc1 (stereo not drawn) | inconclusive: 28.2 µM [inhibitor, single point]
30 | COC(=O)c1ccc2nc(-c3ccc(Cl)cc3)c(CC3CCCCC3)n2c1 | inconclusive: 10 µM [inhibitor, partial curve, poor fit]
31 | CCN1C(=O)[C@H]2[C@@H](c3ccc(C)cc3)N3C(=O)N(c4cccc(Cl)c4)C(=O)[C@@]3(CC(C)C)[C@H]2C1=O | inconclusive: 10 µM [inhibitor, partial curve, poor fit]
32 | O=C(CN(c1cccc([N+](=O)[O-])c1)S(=O)(=O)c1ccccc1)NCc1ccccc1 | inconclusive: 28.2 µM [inhibitor, single point]
33 | C[C@H](O)[C@@H]1C(=O)N2CCc3c([nH]c4ccccc34)[C@@H]2C[C@@H]1N(C)Cc1ccc2c(c1)OCO2 | inconclusive: 11.2 µM [inhibitor, partial curve, poor fit]
34 | COc1ccccc1CC(=O)Nc1ccc([N+](=O)[O-])cc1O | inconclusive: 28.2 µM [inhibitor, single point]
35 | CN(C)C(CNC(=O)c1cc2ccccc2o1)c1ccccc1 (stereo not drawn) | inconclusive: 15.8 µM [inhibitor, partial curve, poor fit]
36 | O=c1[nH]c2ccccc2n1C1CCCCC1 | inactive
37 | O=C(c1ccc2oc(CCc3ccccc3)nc2c1)N1CCC(O)CC1 | inconclusive: 28.2 µM [inhibitor, single point]
38 | Cc1ccc(NC(=O)c2c(C)nn(-c3ccccc3)c2Cl)c(C)c1 | inconclusive: 11.2 µM [inhibitor, partial curve, poor fit]
39 | COc1cc(OC)cc(C2=Cc3ccccc3C(CC(C)=O)N2c2ccc(C#CC3(O)CCCCC3)cc2)c1 (stereo not drawn) | inconclusive: 14.1 µM [inhibitor, single point]
40 | COc1ccc(C(N)c2csc(Nc3ccc(C(F)(F)F)cn3)n2)cc1 (stereo not drawn) | inconclusive: 22.4 µM [inhibitor, single point]
41 | Cc1ccc(N2CCN(S(=O)(=O)c3ccc4c(c3)oc(=O)n4C)CC2C)cc1 (stereo not drawn) | inconclusive: 11.2 µM [inhibitor, single point]
42 | C=CCN(C/C(=N\O)c1sc(C(=O)OCC)nc1C)c1cccc(Br)c1 | inconclusive: 11.2 µM [inhibitor, single point]

Row | SMILES | Potency
43 | COc1cc(NC(=O)C/C(C)=N/NC(=O)C2CCCCC2)c(OC)cc1Cl | inconclusive: 15.8 µM [inhibitor, single point]
44 | O=S(=O)(NCCC1=CCCCC1)c1c(Cl)cccc1Cl | inconclusive: 14.1 µM [inhibitor, single point]
45 | CSc1nc(Sc2ccc(Cl)cc2)c2ccccc2n1 | inactive
46 | O=C(O)Cc1ccc(NC2(c3ccccc3)C(=O)c3ccccc3C2=O)cc1 | inactive
47 | Oc1csc(Cc2nc(-c3ccc4ccccc4c3)cs2)n1 | inconclusive: 28.2 µM [inhibitor, single point]
48 | COC(=O)c1ccccc1NC(=O)C1=C(C)C(=O)OC12CCCCCC2 | inactive
49 | Cc1ccc(S(=O)(=O)N2CCN(C(=O)c3ccc(OCc4c(C)noc4C)cc3)CC2)cc1 | inconclusive: 31.6 µM [inhibitor, single point]
50 | CN(C(=O)c1ccco1)c1nc(-c2ccc(Cl)cc2)cs1 | inactive
51 | COCC(C)n1c(SCc2cc(C(=O)OC)c(C)o2)nc2ccccc2c1=O (stereo not drawn) | inconclusive: 17.8 µM [inhibitor, single point]
52 | CCOC(=O)c1nnc(-c2ccccc2)nc1NCc1ccc(Cl)cc1 | inconclusive: 11.2 µM [inhibitor, partial curve, poor fit]
53 | CCN(CC)S(=O)(=O)c1ccc(S(=O)(=O)N2CCCC2)cc1 | inactive
54 | COC(=O)c1[nH]c2ccc(Br)cc2c1NC(=O)CN1CCN(C2CCCCC2)CC1 | inconclusive: 7.94 µM [inhibitor, partial curve, poor fit]
55 | Cc1cc(-c2ccccc2)nc(Oc2ccc(C(C)(C)C)cc2)c1S(C)(=O)=O | inconclusive: 8.91 µM [inhibitor, partial curve, poor fit]
56 | CCc1cccc(NC(=O)c2cccc(S(=O)(=O)N3CCN(C)CC3)c2)c1 | inconclusive: 11.2 µM [inhibitor, partial curve, poor fit]
57 | CCOC(=O)CSc1nc2ccccc2c(=O)n1-c1cccc(C)c1 | inconclusive: 10 µM [inhibitor, partial curve]
58 | COc1ccc(NC(=O)CN2CCCCC2)c([N+](=O)[O-])c1 | inactive
59 | COc1ccc([C@H]2CC(=O)C=C(c3ccc(C)c([N+](=O)[O-])c3)C2)cc1 | inconclusive: 11.2 µM [inhibitor, single point]
60 | O=C(Cn1cc(S(=O)(=O)c2ccccc2)c(=O)c2cc3c(cc21)OCO3)Nc1ccc(Cl)cc1 | inactive
61 | O=C(CS(=O)(=O)c1cccc2nsnc12)N1CCN(c2cccc(C(F)(F)F)c2)CC1 | inconclusive: 22.4 µM [inhibitor, partial curve, poor fit]
62 | CC1(C(=O)NCc2ccc(C(F)(F)F)cc2)CCN1Cc1c(F)cccc1F (stereo not drawn) | inconclusive: 22.4 µM [inhibitor, single point]
63 | CCOc1ccc2nc(NCCNC(=O)Nc3ccccc3)c(C#N)cc2c1 | inconclusive: 31.6 µM [inhibitor, partial curve, poor fit]

From PubChem BioAssay AID624417 (National Center for Advancing Translational Sciences (NCATS), 2012)
